The whole screen tested about 360,000 compounds, of which about 25,000 (6.9%) were called active. The inconclusive results got no clear call from the source; some entries with a clear call stand among them for comparison. The call rests on the fitted dose curve; in most records, active means well fitted inhibition curve with a large enough effect; inconclusive means small, poorly fitted or top-dose-only effect; inactive means flat fitted curve, though single readings scatter. Where the call is inconclusive, the potency comes from a doubtful curve fit.
What follows are compounds tested against Luciferin 4-monooxygenase (Photinus pyralis) (UniProt P08659) (assay: qHTS profiling assay for firefly luciferase inhibitor/activator using purifed enzyme and Km concentrations of substrates (counterscreen for miR-21 project)). Details: purified FLuc, luminescence inhibition; activity change, negative = inhibition: at 57.5 µM (top of the series).
UniProt P08659, sequence (P08659 whole entry, looked up): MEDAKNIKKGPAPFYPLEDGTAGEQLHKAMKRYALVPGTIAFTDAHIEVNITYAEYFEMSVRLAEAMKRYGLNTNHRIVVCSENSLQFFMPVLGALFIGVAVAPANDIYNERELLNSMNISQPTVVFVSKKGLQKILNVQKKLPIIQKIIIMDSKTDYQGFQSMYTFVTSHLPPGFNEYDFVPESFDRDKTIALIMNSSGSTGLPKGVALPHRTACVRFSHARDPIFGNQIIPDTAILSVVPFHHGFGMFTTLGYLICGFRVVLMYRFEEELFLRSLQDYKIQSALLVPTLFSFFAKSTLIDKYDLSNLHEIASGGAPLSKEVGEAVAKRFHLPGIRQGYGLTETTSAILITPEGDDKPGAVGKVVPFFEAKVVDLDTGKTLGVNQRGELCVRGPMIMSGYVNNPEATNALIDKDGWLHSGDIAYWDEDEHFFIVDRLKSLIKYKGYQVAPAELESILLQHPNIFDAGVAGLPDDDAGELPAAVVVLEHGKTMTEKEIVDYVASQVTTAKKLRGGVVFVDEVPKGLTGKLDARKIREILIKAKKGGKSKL
Summary of the method: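 Purified P. pyralis luciferase (10nM final) with 10uM D-luciferin and 10uM ATP (Km levels) in 50mM Tris acetate pH 7.5, 10mM Mg acetate, 0.01% Tween-20, 0.05% BSA; qHTS 6-point titration, ~60 µM downward; luminescence read.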
Further: nearly all actives have a fitted effect of over 55% in size.
Potency means the concentration at half of the fitted maximal effect; tags describe the fitted curve by direction and shape.
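Wherever activity change, negative = inhibition is given: plate controls were vehicle for no effect and reference inhibitor for full effect.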

How did the Potency turn out when `Cc1cc(NC(=O)c2ccoc2C)ccc1Br` was run?
Its Potency is active: 7.57 µM.

Which Potency does the source give for `COc1cc(/C=N/Nc2nnc3c(n2)[nH]c2ccccc23)ccc1O` here?
Its Potency is inconclusive: 0.301 µM [inhibitor, full curve, poor fit].

Which Potency does the source give for `C/C=C\C=C/C(=O)Nc1cccc(C2=NOC3(C2)C[C@H](C(N)=O)N(C(=O)Cc2ccc([N+](=O)[O-])cc2)C3)c1` (stereo partly drawn) here?
The Potency was active: 21.3 µM.

How did the “activity change, negative = inhibition” value turn out when `COc1ccccc1C(=O)Nc1ccc(OCc2cc(=O)n3ccsc3n2)cc1` was run?
The value was inactive: 3.89%.

With `Cc1cc(-c2nc(C)c(-c3nnc(SCC(=O)Nc4ccccc4)n3C)s2)no1` as the compound, how does the “activity change, negative = inhibition” value read?
The value was inactive: -1.89%.

For `Cc1cc(C(=O)Nc2ccc(S(=O)(=O)Nc3nccs3)cc2)c(C)o1`, which Potency is on record?
The Potency was inconclusive: 21.3 µM [inhibitor, partial curve, poor fit].

Which Potency does the source give for `C=CCNC(=O)c1n[nH]c2c1CC(C(C)(C)CC)CC2` (stereo not drawn) here?
Its Potency is inconclusive: 23.9 µM [inhibitor, partial curve, poor fit].

With `O=C(CCN1C(=O)/C(=C\c2ccccc2Cl)SC1=S)Nc1cccnc1` as the compound, how does the Potency read?
Its Potency is inconclusive: 10.7 µM [inhibitor, partial curve].

For `COc1ccc(-c2noc(Cc3cccs3)n2)cc1`, which Potency is on record?
The Potency was active: 5.36 µM.

`CCN1C(=O)/C(=C/C=C2\C=CN(CC)c3ccccc32)SC1=S` was tested. Which Potency did it give?
Its Potency is inconclusive: 1.51 µM [inhibitor, full curve].

`COc1cccc2cc(-c3nnc(Nc4c(F)cccc4F)s3)c(=O)oc12` was tested. Which Potency did it give?
The Potency was inconclusive: 0.536 µM [inhibitor, full curve, poor fit].

`O=C(c1ccco1)n1nc(-c2ccccc2)nc1SCc1ccccc1` was tested. Which Potency did it give?
Its Potency is inconclusive: 9.53 µM [inhibitor, partial curve].

For `Cc1oc(-c2ccccc2F)nc1CS(=O)(=O)CC(=O)NCCc1ccc(Cl)cc1`, which “activity change, negative = inhibition” value is on record?
Its value is inactive: -14.1%.

With `COc1cc(-c2nc(Cn3nnc(C(=O)Nc4ccc(C)cc4C)c3C)c(C)o2)cc(OC)c1OC` as the compound, how does the “activity change, negative = inhibition” value read?
The value was inactive: -1.45%.

For `COc1ccc(C(=O)Nn2c(SCC(=O)c3ccccc3)nc3ccccc3c2=O)cc1`, which Potency is on record?
Its Potency is active: 6.75 µM.

With `S=C(Cc1ccc(Cl)cc1)N1CCOCC1` as the compound, how does the “activity change, negative = inhibition” value read?
Its value is inactive: -1.16%.

How did the “activity change, negative = inhibition” value turn out when `O=C(COC(=O)c1ccc(O)cc1O)NNC(=O)c1cccs1` was run?
The value was inactive: 0.579%.

Which “activity change, negative = inhibition” value does the source give for `Cc1cc(C)cc(C(=O)Nc2cc3c4c(c2)CC(=O)N4CCC3)c1` here?
Its value is inactive: 7.37%.

For `Cc1cc(C)c2nc(-c3cccnc3)cc(C(=O)Nc3ccc(S(=O)(=O)Nc4onc(C)c4C)cc3)c2c1`, which Potency is on record?
Its Potency is inconclusive: 16.9 µM [inhibitor, partial curve].

For `c1ccc(-c2noc(C34CC5CC(CC(C5)C3)C4)n2)cc1`, which Potency is on record?
Its Potency is inconclusive: 10.7 µM [inhibitor, partial curve].

With `Cc1nn(C2CCCCC2)c(N)c1-c1ccccc1` as the compound, how does the Potency read?
Its Potency is inconclusive: 37.9 µM [inhibitor, partial curve, poor fit].

For `COc1ccc(C2=Nc3cccc4cccc(c34)N2)cc1`, which Potency is on record?
The Potency was active: 5.36 µM.

`COc1cccc(NC(=O)C(=O)NCc2ccncc2)c1` was tested. Which Potency did it give?
Its Potency is active: 19 µM.

For `CC(=O)c1ccc(NC(=O)CN(c2c(C)cccc2C)S(C)(=O)=O)cc1`, which Potency is on record?
Its Potency is inconclusive: 23.9 µM [inhibitor, partial curve].

`COC(=O)Nc1nnc(/C=C/c2ccc(OC)cc2)s1` was tested. Which Potency did it give?
Its Potency is active: 6.01 µM.

With `COC(=O)c1sc(NC(=S)NC(=O)c2cccc(Br)c2)nc1C` as the compound, how does the Potency read?
The Potency was active: 13.5 µM.

For `Cc1ccc(NC(=O)c2c(NC(=O)CCC(=O)O)sc3c2CCCCC3)cc1`, which Potency is on record?
Its Potency is inconclusive: 37.9 µM [inhibitor, partial curve, poor fit].

Which Potency does the source give for `COc1ccc(-c2cn3ccsc3n2)cc1` here?
The Potency was active: 2.39 µM.

For `CCCCCc1nc2c(=O)[nH]c3ccccc3c2o1`, which Potency is on record?
Its Potency is inconclusive: 26.9 µM [inhibitor, partial curve, poor fit].

For `COc1cc(OC)cc(C(=O)N[C@H](C(=O)Nc2nc(-c3ccc(OC)c(OC)c3)cs2)C(C)C)c1`, which “activity change, negative = inhibition” value is on record?
The value was inactive: 0.362%.

For `COc1ccc2cc3cc(C(=O)NC(C)C)oc3nc2c1`, which Potency is on record?
The Potency was active: 16.9 µM.

`Cc1ccc(OC(=O)c2cncc(Br)c2)c(C)c1` was tested. Which Potency did it give?
The Potency was inconclusive: 21.3 µM [inhibitor, partial curve, poor fit].

How did the Potency turn out when `O=C(CCl)Nc1ccc(N2CCCCCC2)cc1` was run?
Its Potency is inconclusive: 26.9 µM [inhibitor, single point].

`CCc1ccc(C(=O)COC(=O)c2cnc(C)cn2)cc1` was tested. Which Potency did it give?
Its Potency is inconclusive: 26.9 µM [inhibitor, partial curve, poor fit].

`COc1cc(OC)c2c(C)cc(=O)oc2c1C(CCN1CCOCC1)c1ccc(N(C)C)cc1` (stereo not drawn) was tested. Which “activity change, negative = inhibition” value did it give?
The value was inactive: -1.47%.

With `CN(CC(=O)NC1CCCCCC1)S(=O)(=O)c1ccccc1` as the compound, how does the Potency read?
Its Potency is inconclusive: 30.1 µM [inhibitor, partial curve, poor fit].

`COc1ccc(Cn2c(SCc3ccc(C(=O)NCc4ccc(C)cc4)cc3)nc3cccnc32)cc1` was tested. Which Potency did it give?
Its Potency is inconclusive: 12 µM [inhibitor, partial curve, poor fit].

With `CCOC(=O)c1cccc(NC(=O)CSc2nc3ccccc3c(=O)n2CC)c1` as the compound, how does the “activity change, negative = inhibition” value read?
Its value is inactive: 5.06%.

For `C/C(=N\OCC(=O)Nc1nc2ccccc2s1)c1ccccc1`, which Potency is on record?
Its Potency is inconclusive: 26.9 µM [inhibitor, single point].

Which Potency does the source give for `CCCC1CCc2c(sc(NC(=O)OCC)c2C#N)C1` (stereo not drawn) here?
Its Potency is inconclusive: 21.3 µM [inhibitor, partial curve, poor fit].

For `Cc1ccc(C2=Nc3ccccc3N=C(c3ccc(F)cc3)C2)c(O)c1`, which “activity change, negative = inhibition” value is on record?
Its value is inactive: -1.94%.

With `O=C(NCCOc1ccccc1)C1CCC(=O)N(CCc2ccc(Cl)cc2)C1` (stereo not drawn) as the compound, how does the Potency read?
Its Potency is inconclusive: 30.1 µM [inhibitor, partial curve, poor fit].

`Cc1ccccc1-c1nnc(SCc2ccc(F)cc2)o1` was tested. Which Potency did it give?
The Potency was active: 15.1 µM.

Which Potency does the source give for `COc1nccnc1NS(=O)(=O)c1ccc(NC(=S)NC(=O)/C=C/c2ccc(F)cc2)cc1` here?
The Potency was inconclusive: 37.9 µM [inhibitor, partial curve, poor fit].

`O=C(NCc1ccco1)C1CCN(c2nc3ccccc3n2Cc2ccc(F)cc2)CC1` was tested. Which “activity change, negative = inhibition” value did it give?
The value was inactive: 0.862%.

`CCCN1C(=O)C(=O)N(CC(=O)c2cc(C)n(C3CC3)c2C)C1=O` was tested. Which Potency did it give?
The Potency was inconclusive: 12 µM [inhibitor, partial curve].

`Cc1ccc(S(=O)(=O)NCCC(=O)NC2CCN(Cc3ccccc3)CC2)cc1` was tested. Which “activity change, negative = inhibition” value did it give?
The value was inactive: 4.15%.

How did the “activity change, negative = inhibition” value turn out when `CCOc1ccccc1C(=O)NCC(=O)NNC(=O)CN(C)S(=O)(=O)c1ccc(Cl)cc1` was run?
Its value is inactive: 15.1%.

Which “activity change, negative = inhibition” value does the source give for `CC(=O)N(c1ccc(Cl)cc1)c1nc(C)cc(C)c1C#N` here?
Its value is inactive: 0.192%.

Which Potency does the source give for `CCCCOC(=O)c1ccc(NC(=O)c2ocnc2C)cc1` here?
Its Potency is active: 16.9 µM.

`CCCCCC(=O)N/N=C(\C)c1ccc(N2CCCCC2)cc1` was tested. Which Potency did it give?
Its Potency is inconclusive: 42.6 µM [inhibitor, partial curve, poor fit].

With `Cn1c(SCC(=O)c2ccc3c(c2)OCCO3)nnc1C(F)(F)F` as the compound, how does the Potency read?
Its Potency is inconclusive: 37.9 µM [inhibitor, single point].

Which Potency does the source give for `O=C(Nc1nc(-c2ccc(F)cc2)cs1)C1CCCO1` (stereo not drawn) here?
The Potency was active: 12 µM.

Which Potency does the source give for `CCCC(=O)Nc1cc2nn(-c3ccc(OC)cc3)nc2cc1C` here?
The Potency was inconclusive: 0.338 µM [inhibitor, full curve, poor fit].

For `Cc1cc(C)cc(OCC(=O)O/N=C(\N)c2ccccc2Cl)c1`, which Potency is on record?
The Potency was inconclusive: 26.9 µM [inhibitor, partial curve, poor fit].

With `O=C(NCCc1ccccc1)c1c[nH]c2ccc(S(=O)(=O)Nc3ccc(F)cc3F)cc2c1=O` as the compound, how does the Potency read?
Its Potency is inconclusive: 8.49 µM [inhibitor, partial curve, poor fit].

With `c1ccc(CC2CCN(C3=Nc4cccc5cccc3c45)CC2)cc1` as the compound, how does the Potency read?
Its Potency is inconclusive: 21.3 µM [inhibitor, partial curve].

For `Nc1c(C(=O)N/N=C/c2cccnc2)cnn1-c1ccccc1`, which Potency is on record?
Its Potency is inconclusive: 16.9 µM [inhibitor, partial curve, poor fit].

`COc1cc(CNc2ccc(O)cc2)cc(Br)c1OCc1ccccc1` was tested. Which Potency did it give?
The Potency was inconclusive: 30.1 µM [inhibitor, single point].

`CCOc1ccc(NC(=O)NCCN2CCN(c3cc(Cl)ccc3C)CC2)cc1` was tested. Which Potency did it give?
The Potency was inconclusive: 37.9 µM [inhibitor, partial curve, poor fit].

How did the Potency turn out when `O=C(NCc1ccco1)c1sc2cc(F)ccc2c1Cl` was run?
The Potency was active: 15.1 µM.

Which Potency does the source give for `N#C/C(=C\c1ccc(O)cc1)C(=O)NCC1CCCO1` (stereo not drawn) here?
Its Potency is inconclusive: 26.9 µM [inhibitor, partial curve, poor fit].

How did the “activity change, negative = inhibition” value turn out when `CC1=C(c2ccc(C)c(C)c2)S(=O)(=O)N(Cc2ccc(C(=O)NCc3ccccc3F)cc2)C1=O` was run?
The value was inactive: -3.7%.

`O=C(Nc1cccnc1)Nc1cccc([N+](=O)[O-])c1` was tested. Which “activity change, negative = inhibition” value did it give?
Its value is inactive: -18.2%.

For `Cc1cc(C)cc(NC(=O)Cn2nnc(-c3ccccc3F)n2)c1`, which “activity change, negative = inhibition” value is on record?
Its value is inactive: -0.814%.

Which “activity change, negative = inhibition” value does the source give for `CC(CN1CCC(n2nccc2NC(=O)CCCc2ccccc2)CC1)c1ccccc1` (stereo not drawn) here?
The value was inactive: 6.65%.

With `Cc1ccc(NC(=O)Cn2ccc([N+](=O)[O-])n2)cc1Cl` as the compound, how does the “activity change, negative = inhibition” value read?
Its value is inactive: 0.903%.

Which Potency does the source give for `N#C/C(=C\c1ccc(Cl)cc1)c1nc2ccccc2o1` here?
The Potency was inconclusive: 7.57 µM [inhibitor, full curve].

For `Cc1ccc(NC(=O)C(=O)NC2CCCCC2)cc1`, which Potency is on record?
Its Potency is inconclusive: 1.9 µM [inhibitor, full curve].

With `O=C1CCN(CCc2ccccc2)CCN1CCSc1ccccc1` as the compound, how does the Potency read?
Its Potency is inconclusive: 21.3 µM [inhibitor, single point].

With `COc1ccc2oc(C(=O)N3CCN(c4ncccn4)CC3)c(C)c2c1` as the compound, how does the Potency read?
Its Potency is inconclusive: 23.9 µM [inhibitor, single point].

With `O=C1Nc2ccccc2/C1=C\C(=O)c1ccccc1` as the compound, how does the Potency read?
Its Potency is inconclusive: 23.9 µM [inhibitor, partial curve].

`O=C1C(Cl)=C(N2CCC(C(=O)O)CC2)C(=O)c2ccccc21` was tested. Which Potency did it give?
Its Potency is inconclusive: 37.9 µM [inhibitor, partial curve, poor fit].
